# According to PubChem BioAssay AID686979 (National Center for Advancing Translational Sciences (NCATS), 2013):
# “And” between values parts separate entries of the source, which are not always exact repeats. Equal values may be shown once. About 50,000 (12%) of roughly 420,000 compounds were called active. Inconclusive means that the source gave no clear call. Such entries were picked first, then a sample of the others. Calls follow the shape of the dose curve; as a rule, active = well fitted inhibition curve with a large enough effect; inconclusive = small, poorly fitted or top-dose-only effect; inactive = flat fitted curve, though single readings scatter. No potency is given beside an inconclusive call; the fits are too rough.
# Experiment: qHTS for Inhibitors of human tyrosyl-DNA phosphodiesterase 1 (TDP1): qHTS in cells in presence of CPT; also: nearly all actives have a fitted effect of over 55% in size
# Conditions: chicken DT40 Tdp1-/-;hTDP1 cells + 20 nM CPT, ATP luminescence, 48 h; activity change, negative = growth inhibition: at 46.2 µM (top of the series) unless noted
# How it was run: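 Cell growth measured by CellTiter-Glo luminescence after a minimum 48 h, 37 C compound exposure with 20 nM CPT in Tdp1-knockout DT40 cells stably expressing hTDP1, seeded 400/well; qHTS titration format.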
# % is scaled to controls: 0 for no effect and ±100 for the full control effect; potency is read from the fitted curve at half-maximal effect; tags tell the direction and shape of the fitted curve.
Structure (SMILES),Potency,"activity change, negative = growth inhibition"
CCN(CC)CCCNC(=O)c1oc2ccc(S(=O)(=O)N3CC(C)CC(C)C3)cc2c1C (stereo not drawn),"inconclusive [inhibitor, single point]",–
O=C(c1ccc2c(c1)N(Cc1ccc(Cl)cc1)C(=O)c1ccccc1S2=O)N1CCOCC1 (stereo not drawn),"inconclusive [inhibitor, single point]",–
Cc1c(C(C)C[C@H](C)O)oc(=O)c2c1Oc1c(C)c(C(C)C[C@H](C)O)oc(=O)c1C2 (stereo partly drawn),"inconclusive [inhibitor, single point]",–
C[C@@H]1C(c2cccc(Cl)c2)=NN(c2ccccc2)[C@H]1C(=O)N1CCOC1=O,"inconclusive [inhibitor, single point]",–
CC(=O)c1ccc(CCCCCCCCCC(=O)O)s1,inactive,–
C=CCn1cc(C(=O)NCCN(CC)CC)c(=O)c2cc(S(=O)(=O)N3CCCCCC3)ccc21,"inconclusive [inhibitor, single point]",–
Cc1ccc(OCC(O)CNC(C)c2ccccc2)cc1C (stereo not drawn),"inconclusive [inhibitor, single point]",–
N#CCCn1cc(C(=O)CN2C(=O)NC3(CCc4ccccc43)C2=O)c2ccccc21 (stereo not drawn),"inconclusive [inhibitor, single point]",–
O=C(COC(=O)/C=C/c1cccc(C(F)(F)F)c1)NC(=O)NCc1ccccc1,inactive,–
CC(NC(=O)COC(=O)c1cccc(S(=O)(=O)N2CCCC2)c1)c1ccccc1 (stereo not drawn),inactive,–
CC(C)(C)OC(=O)CN1C(=O)C(Sc2n[nH]c(-c3ccccc3)n2)CCc2ccccc21 (stereo not drawn),inactive,–
CCCOc1ccc(C(O)(CCC)CCN2CCCCC2)cc1 (stereo not drawn),active: 20.6 µM,–
CC(=O)N(C(C)=O)N1C(=O)c2cccc3c(N4CCOCC4)ccc(c23)C1=O,inactive,–
O=C(NCc1nnc(SCC(=O)N2CCN(c3ccccc3)CC2)o1)c1ccc(F)cc1,"inconclusive [inhibitor, full curve, poor fit]",–
CCc1ccc(CNc2ncnc3c2nc2n3CCCC2)cc1,"inconclusive [inhibitor, single point]",–
c1cncc(-c2nc(-c3ccc4c(c3)OCO4)cs2)c1,"inconclusive [inhibitor, single point]",–
COc1ccc(CNC(=O)CN(Cc2ccc(Cl)cc2)C(=O)c2csnn2)cc1,"inconclusive [inhibitor, partial curve]",–
CCc1cccc(NC(=O)Cn2c(=O)ccc3cc(S(=O)(=O)N4CCC(C)CC4)ccc32)c1,active: 18.4 µM,–
O=C(NCCCn1ccnc1)c1[nH]c(C(F)(F)F)nc1-c1ccccc1,inactive,–
Cn1c(-c2ccc3c(c2)OCO3)cnc1NCc1cccc(O)c1,inactive,–
Cc1cc(C)c2c(CC(=O)N3CCN(c4cccc(Cl)c4)CC3)coc2c1,"inconclusive [inhibitor, single point]",–
CCCCC(=O)OC1CCC2C3CCc4cc(O)ccc4C3CCC12C (stereo not drawn),"inconclusive [inhibitor, single point]",–
Fc1cccc(/C=N/Nc2nncc3ccccc23)c1,"inconclusive [inhibitor, single point]",–
Cc1cc(/C(=N/O)C(C)(C)NO)ccc1Cl,"inconclusive [inhibitor, single point]",–
N#Cc1ccc(OCC(=O)N/N=C2/CC(c3ccccc3)Oc3ccccc32)cc1 (stereo not drawn),"inconclusive [inhibitor, single point]",–

Structure (SMILES),Potency,"activity change, negative = growth inhibition"
S=c1[nH]nc(COc2ccccc2)n1/N=C/c1cccc(Cl)c1Cl,"inconclusive [inhibitor, single point]",–
NS(=O)(=O)c1ccc(CCNC(=S)NC2CCCCC2)cc1,–,inconclusive: -34% [inhibitor]
O=C1C(=O)N(CCS(=O)(=O)c2ccccc2)c2ccc(F)cc21,active: 20.6 µM,–
S=c1nc(-c2ccccc2)[nH]c2ccccc12,"inconclusive [inhibitor, single point]",–
CCOC(=O)Cc1csc(NC(=O)c2ccc(C)c(S(=O)(=O)N3CCOCC3)c2)n1,"inconclusive [inhibitor, single point]",–
O=C(O)CCn1cc(-c2ccc(Cl)cc2)nc1-c1ccncc1,inactive,–
COc1ccc(OC)c(-c2csc(N(Cc3ccco3)C(=O)c3cccs3)n2)c1,"inconclusive [inhibitor, single point]",–
O=C(O)c1cccc(S(=O)(=O)Nc2ccccc2Oc2ccccc2)c1,inactive,–
O=C(Nc1ccccc1)OC(CN1CCCCC1)C(F)(F)F (stereo not drawn),inactive,–
CC1CCc2nc3ncn(Cc4ccccc4C#N)c(=O)c3cc2C1 (stereo not drawn),"inconclusive [inhibitor, single point]",–
COc1ccc(-c2nn(-c3ccccc3)cc2/C=N/Nc2ccc3ccccc3n2)cc1OC,active: 3.26 µM,–
CC(C)CN(C(=O)c1cc([N+](=O)[O-])cc([N+](=O)[O-])c1)C1CCS(=O)(=O)C1 (stereo not drawn),inactive,–
COc1cccc(N2CCN(C(=O)c3ccc(Cn4c(=O)[nH]c5cc(OC)c(OC)cc5c4=O)cc3)CC2)c1,active: 9.2 µM,–
COc1ccc(CCC2(C)NC(=O)N(C(C)C(=O)Nc3ccccc3F)C2=O)cc1 (stereo not drawn),inactive,–
Clc1ccccc1SCc1nc2ccccc2[nH]1,"inconclusive [inhibitor, single point]",–
CC(C)CCNC(=S)Nc1ccc2nc3n(c(=O)c2c1)CCCCC3,"inconclusive [inhibitor, single point]",–
COc1cc2c(cc1OC)/C(=C/c1ccc(Cl)cc1)C(=O)OC2,"inconclusive [inhibitor, single point]",–
Cc1nn(-c2ccc(F)cc2)c(Cl)c1/C=N/NC(=O)c1cccs1,"inconclusive [inhibitor, partial curve]",–
COc1cc(CC(=O)Nc2sc3c(c2C(N)=O)CCCC3)cc(OC)c1OC,"inconclusive [inhibitor, full curve, poor fit]",–
CCc1cccc(NC(=O)CSCc2nc3sc(C)c(C)c3c(=O)[nH]2)c1,inactive,–
COc1ccc(OCc2cccc(C(=O)Nc3cc(C)on3)c2)cc1,inactive,–
CC(C)c1ccc(NC(=O)NCc2ccc(F)cc2)cc1,"inconclusive [inhibitor, single point]",–
COc1ccc(-c2cc(C(F)(F)F)n3nc(C(=O)Nc4cc(C)on4)cc3n2)cc1OC,inactive,–
COc1ccc(-c2noc(N3CCC(C(=O)Nc4cc(OC)ccc4OC)CC3)n2)cc1,active: 20.6 µM,–
O=C1NC(c2ccncc2)Nc2ccccc21 (stereo not drawn),inactive,–

Structure (SMILES),Potency,"activity change, negative = growth inhibition"
COc1ccc(C(CNC(=O)c2oc3ccc(Cl)cc3c2C)N2CCCCC2)cc1 (stereo not drawn),active: 14.6 µM and active: 16.4 µM,–
Cc1ccc(S(=O)(=O)N(C)[C@H]2C[C@H]3c4[nH]c5ccccc5c4CCN3C[C@H]2[C@H](C)O)cc1,active: 20.6 µM,–
CCc1ccc(OCc2ccc(C(=O)O)o2)cc1,inactive,–
CC(C)c1c(C(=O)N(C)CC2CCCN(C)C2)cnn1-c1nccc(-c2cccs2)n1 (stereo not drawn),"inconclusive [inhibitor, single point]",–
O=C(COC(=O)c1ccc(S(=O)(=O)N2CCOCC2)cc1)NC1CCCC1,inactive,–
CC(C)(C)c1ccc(C(=O)NNC(=S)NCC2CCCO2)cc1 (stereo not drawn),"inconclusive [inhibitor, single point]",–
Cc1nnc(NC(=O)c2cccc(S(=O)(=O)N3CCc4ccccc43)c2)s1,inactive,–
O=C(CSCc1ccccc1)Nc1ccc2c(c1)C(=O)NC2=O,"inconclusive [inhibitor, single point]",–
CCCc1nc(SCC(=O)NCc2ccco2)c2c(=O)n(C)c(=O)n(C)c2n1,"inconclusive [inhibitor, single point]",–
O=[N+]([O-])c1cnccc1-n1nnc2ccccc21,active: 16.4 µM,–
Cc1sc2nc3ccc(N4CCCCC4)nn3c(=O)c2c1C,"inconclusive [inhibitor, single point]",–
CN1c2ccc([N+](=O)[O-])cc2N(C)C1(C)c1ccccc1 (stereo not drawn),"inconclusive [inhibitor, single point]",–
O=C1CC(c2nc3ccccc3[nH]2)CN1c1cccc(Cl)c1 (stereo not drawn),"inconclusive [inhibitor, single point]",–
O=C(CSc1ccc([N+](=O)[O-])cc1)NCC1CCCCC1,"inconclusive [inhibitor, single point]",–
NNc1ccc(Cl)nn1,inactive,–
COc1cccc(CSc2nc3cc(C(=O)NC4CCCC4)ccc3c(=O)n2Cc2ccccc2)c1,"inconclusive [inhibitor, single point]",–
COC(=O)c1nn(Cc2ccccc2)c(=O)c2ccccc12,"inconclusive [inhibitor, single point]",–
O=C(Nc1cc(=O)c2ccccc2o1)N1CCCCC1,inactive,–
Cc1ccc(-n2nc3c(=O)n(C(C)C(=O)NCCC4=CCCCC4)nc(C)c3c2C)cc1 (stereo not drawn),"inconclusive [inhibitor, single point]",–
O=C(N/N=C/C(Br)=C/c1ccccc1)c1ccccc1F,active: 11.6 µM,–
CCCCNc1nc2c(c(=O)n(Cc3ccc(Cl)cc3)c(=O)n2C)n1C,active: 20.6 µM,–
O=C(COc1ccccc1Cl)Nc1ccc2[nH]c(=O)[nH]c2c1,inactive,–
CC(=O)c1ccc(F)c(-c2cc(C)cc3c2OC(CNC(=O)Cc2ccc4c(c2)OCO4)C3)c1 (stereo not drawn),"inconclusive [inhibitor, single point]",–
